The results in this text go back to paper PMC4336329 (PLoS ONE, 2015).

Molecules are shown by their SMILES. The campaign covered roughly 310,000 compounds. About 14,000 (4.5%) showed an effect of 50% or more. The effect is printed as a negative number. Some of the results follow.
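Note: peak tail current of the secondary pulse compared with the same well before compound.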

The target in the experiment is human ether-à-go-go-related gene (hERG) potassium channel (human, UniProt Q12809). In words: primary screen, population patch clamp on CHO cells stably expressing hERG.
human ether-à-go-go-related gene (hERG) potassium channel, sequence (Q12809 whole entry, looked up): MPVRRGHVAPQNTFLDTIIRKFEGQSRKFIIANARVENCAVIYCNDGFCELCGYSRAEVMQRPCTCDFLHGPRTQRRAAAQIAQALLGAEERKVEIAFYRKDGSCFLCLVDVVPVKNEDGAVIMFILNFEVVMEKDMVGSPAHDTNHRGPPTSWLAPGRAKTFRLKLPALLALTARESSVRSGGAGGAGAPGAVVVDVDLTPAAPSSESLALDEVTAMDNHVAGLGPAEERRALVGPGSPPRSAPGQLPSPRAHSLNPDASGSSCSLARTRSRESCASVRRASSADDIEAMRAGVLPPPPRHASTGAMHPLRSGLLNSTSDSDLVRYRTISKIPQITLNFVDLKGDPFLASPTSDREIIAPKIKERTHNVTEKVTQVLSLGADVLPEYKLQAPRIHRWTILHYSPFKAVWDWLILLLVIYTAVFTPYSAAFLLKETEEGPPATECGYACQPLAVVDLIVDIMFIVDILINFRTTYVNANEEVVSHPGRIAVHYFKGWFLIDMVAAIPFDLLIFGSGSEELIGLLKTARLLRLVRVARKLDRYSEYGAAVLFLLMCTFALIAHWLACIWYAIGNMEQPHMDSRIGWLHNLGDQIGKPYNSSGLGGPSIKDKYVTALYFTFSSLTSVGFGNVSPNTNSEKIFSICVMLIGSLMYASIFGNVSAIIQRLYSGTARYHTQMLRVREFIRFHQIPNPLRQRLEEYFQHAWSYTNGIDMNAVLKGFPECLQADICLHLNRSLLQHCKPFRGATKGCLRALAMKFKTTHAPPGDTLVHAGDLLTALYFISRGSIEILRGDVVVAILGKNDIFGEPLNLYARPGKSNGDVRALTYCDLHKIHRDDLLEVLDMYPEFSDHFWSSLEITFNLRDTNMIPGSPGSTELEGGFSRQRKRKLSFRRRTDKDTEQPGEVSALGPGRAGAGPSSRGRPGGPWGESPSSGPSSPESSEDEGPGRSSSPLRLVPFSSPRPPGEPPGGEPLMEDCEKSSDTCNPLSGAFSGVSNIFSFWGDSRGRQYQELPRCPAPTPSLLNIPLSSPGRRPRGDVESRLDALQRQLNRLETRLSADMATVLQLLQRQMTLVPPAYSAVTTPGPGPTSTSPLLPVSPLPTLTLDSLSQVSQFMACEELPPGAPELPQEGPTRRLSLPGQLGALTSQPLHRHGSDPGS
Take `COC(=O)c1ccc(NC(=O)[C@H](C)NC(N)=O)cc1`: the “hERG current change (%, negative = inhibition) at 10uM” value is recorded as 11.6%.

With `Cc1ccccc1NC(=O)c1c(C)nc(SCC(=O)OCc2ccccc2)c(C#N)c1-c1ccc(F)cc1`, the “hERG current change (%, negative = inhibition) at 10uM” value was 6.29%.

On to `CCCCn1c(O)c(C(CC)=NCCCn2ccnc2)c(=O)[nH]c1=O`, for which the “hERG current change (%, negative = inhibition) at 10uM” value is given as -43.3%.

Consider `CCOC(=O)c1sc(NC(=S)NC(=O)c2cccc(OC)c2)nc1C`, for which the “hERG current change (%, negative = inhibition) at 10uM” value turned out to be 15.4%.

As to `CN(C)S(=O)(=O)Nc1ccccc1C(N)=O`, the “hERG current change (%, negative = inhibition) at 10uM” value stood at 6.91%.

Turning to `O=C(NCCOC(=O)C1COc2ccccc2O1)C1COc2ccccc2O1` (centres unmarked), the “hERG current change (%, negative = inhibition) at 10uM” value is -29%.

`COc1ccc(C(=O)Nc2ccc(OC)c([N+](=O)[O-])c2)cc1Br`: the “hERG current change (%, negative = inhibition) at 10uM” value is 25.5%.

On to `CCOC(=O)c1sc(NC(=O)Nc2ccccc2F)nc1C`, for which the “hERG current change (%, negative = inhibition) at 10uM” value was determined as 1.24%.

In the case of `Cc1ccc(S(=O)(=O)c2nc(S(C)(=O)=O)sc2NCC2CCCO2)cc1` (centres unmarked), the “hERG current change (%, negative = inhibition) at 10uM” value is -13.6%.

As to `O=C(CSc1nnc(NC(=O)c2c(F)cccc2F)s1)NCc1ccc(F)cc1`, the “hERG current change (%, negative = inhibition) at 10uM” value was found to be 0.789%.

Consider `CC(C)N(Cc1cn(C)nc1-c1cccc(Cl)c1)CC1CCC(=O)N1` (centres unmarked), for which the “hERG current change (%, negative = inhibition) at 10uM” value is -8.72%.

On to `CC(C)N(CCC(=O)c1ccc2ccccc2c1)Cc1ccccc1.Cl`, for which the “hERG current change (%, negative = inhibition) at 10uM” value was 9.07%.

For `Cn1cc(S(=O)(=O)N2CCOCC2)cc1C(=O)NCc1ccccc1Cl`, the “hERG current change (%, negative = inhibition) at 10uM” value is reported as -16.9%.

Turning to `COc1ccc(CNCCCC(=O)Nc2c(Cl)ccc(C)c2Cl)cc1OC`, the “hERG current change (%, negative = inhibition) at 10uM” value was -8.83%.

Regarding `Nc1nc(-c2ccc(Cl)cc2)nc(-c2ccc(Cl)cc2)n1`, the “hERG current change (%, negative = inhibition) at 10uM” value is 3.12%.

In the case of `CC1CC(C)CN(C(=O)Cn2nnc(-c3ccc(Br)cc3)n2)C1` (centres unmarked), the “hERG current change (%, negative = inhibition) at 10uM” value is reported as 2.22%.

Take `O=C(CCN1C(=O)/C(=C/c2ccc(F)cc2)SC1=S)N[C@@H](CO)Cc1ccccc1`: the “hERG current change (%, negative = inhibition) at 10uM” value is 15.7%.

`CSc1nc(N2CCOCC2)c2c3c(sc2n1)CCCC3`: the “hERG current change (%, negative = inhibition) at 10uM” value is -2.32%.

Take `Cc1cc(=O)[nH]c(SCn2nnc3ccccc3c2=O)n1`: the “hERG current change (%, negative = inhibition) at 10uM” value was 1.39%.

Turning to `NNC(=O)CCc1c[nH]c2ccccc12`, the “hERG current change (%, negative = inhibition) at 10uM” value stood at 27.3%.

Consider `CN(CCOc1ccccc1)Cc1nc2cc(Cl)ccc2c(=O)[nH]1`, for which the “hERG current change (%, negative = inhibition) at 10uM” value was -48.9%.

On to `CC(OC(=O)c1cccc(S(=O)(=O)N2CCOCC2)c1)C(=O)NC1CCCCC1C` (centres unmarked), for which the “hERG current change (%, negative = inhibition) at 10uM” value stood at 5.52%.

In the case of `COc1cc(C(=O)NCCc2cn3ccccc3n2)cc(OC)c1OC`, the “hERG current change (%, negative = inhibition) at 10uM” value is -4.35%.

For the compound `COc1ccc(-n2c(-c3ccc(Br)cc3)c[n+]3c2CCc2ccccc2-3)cc1.[Br-]`, the “hERG current change (%, negative = inhibition) at 10uM” value was -85.2%.

Consider `CNC(=O)COC(=O)CCC(=O)c1ccc(Cl)cc1`, for which the “hERG current change (%, negative = inhibition) at 10uM” value is given as 7.45%.

In the case of `Cn1c2ccccc2n2c(=O)c(Cl)c(-c3ccccc3)c(C#N)c12`, the “hERG current change (%, negative = inhibition) at 10uM” value is recorded as 3.23%.

Regarding `N#CCCN1CCn2c1nc1ccccc12`, the “hERG current change (%, negative = inhibition) at 10uM” value is recorded as 16.8%.

As for `COC(=O)c1ccccc1C(=O)N(Cc1cccnc1)CC1CCCN(C2CCCCC2)C1` (centres unmarked), the “hERG current change (%, negative = inhibition) at 10uM” value is -40%.

With `CCOc1ccccc1C1CC(=O)Nc2cc(OC)c(OC)c(OC)c21` (centres unmarked), the “hERG current change (%, negative = inhibition) at 10uM” value amounted to 19.6%.

Regarding `CCOc1c(C)cnc2c1c(=O)n(Cc1ccccc1F)c(=O)n2C`, the “hERG current change (%, negative = inhibition) at 10uM” value is -20%.

On to `CC(C(=O)Nc1ccc(F)c(F)c1F)N1CCCCCC1` (centres unmarked), for which the “hERG current change (%, negative = inhibition) at 10uM” value is 6.01%.

For the compound `COc1cccc(NC(=O)c2cc3ccccc3oc2=O)c1`, the “hERG current change (%, negative = inhibition) at 10uM” value is listed as 17.7%.

On to `Cc1ccccc1OCC(=O)Nc1nnc(C2CCCCC2)s1`, for which the “hERG current change (%, negative = inhibition) at 10uM” value came to 10.7%.

Consider `CC(C)(C)OC(=O)N/N=C/c1ccc(C(=O)O)cc1`, for which the “hERG current change (%, negative = inhibition) at 10uM” value is given as 19.7%.

For the compound `CCC(C)N1CC(C(=O)NC2CCCCC2)CC1=O` (centres unmarked), the “hERG current change (%, negative = inhibition) at 10uM” value was 13.9%.

In the case of `OCCOCCn1c(-c2ccccc2)nc(=S)c2c1CCCC2`, the “hERG current change (%, negative = inhibition) at 10uM” value was 9.34%.

With `NS(=O)(=O)c1ccc(CCNC(=O)c2ccc(NC3=NC4CS(=O)(=O)CC4S3)cc2)cc1` (centres unmarked), the “hERG current change (%, negative = inhibition) at 10uM” value is listed as 22.2%.

With `N#Cc1cc(NC2CCCC2)c([N+](=O)[O-])cc1C#N`, the “hERG current change (%, negative = inhibition) at 10uM” value is on record as -5.68%.

Consider `Cc1cc(-c2c(C)n([O-])c(C)c(C)[n+]2=O)ccc1F`, for which the “hERG current change (%, negative = inhibition) at 10uM” value turned out to be 5.26%.

For `CCOc1cc(C2C3=C(CC(C)(C)CC3=O)N(CCOC)C3=C2C(=O)CC(C)(C)C3)ccc1O`, the “hERG current change (%, negative = inhibition) at 10uM” value is -3.99%.

For the compound `COc1cccc(C(=O)NNc2c3ccccc3nc3ccccc23)c1`, the “hERG current change (%, negative = inhibition) at 10uM” value is reported as -26%.

Take `CC(=O)c1ccc(NC(=O)CCCN2C(=O)/C(=C/C(C)=C/c3ccccc3)SC2=S)cc1`: the “hERG current change (%, negative = inhibition) at 10uM” value is 19.2%.

Take `O=C(N/N=C/c1ccc(OC(=O)c2ccco2)cc1)c1ccccn1`: the “hERG current change (%, negative = inhibition) at 10uM” value worked out at 10%.

Turning to `CCN(c1ccccc1)S(=O)(=O)c1ccc(Cl)c(C(=O)OCC(=O)NC(=O)C(C)C)c1`, the “hERG current change (%, negative = inhibition) at 10uM” value came out at 5.92%.

On to `O=C(CCCCn1c(=O)[nH]c2ccccc2c1=O)NCCC1=CCCCC1`, for which the “hERG current change (%, negative = inhibition) at 10uM” value was 9.16%.

Take `CN(CC(=O)NCc1cccs1)CC(=O)Nc1ccc(F)c(F)c1F`: the “hERG current change (%, negative = inhibition) at 10uM” value is -21.5%.

For the compound `CC(Oc1cccc(Cl)c1)c1ccnc2nc(/N=C/N(C)C)nn12` (centres unmarked), the “hERG current change (%, negative = inhibition) at 10uM” value was -5.98%.

For the compound `COc1ccc(CCNS(=O)(=O)c2ccc3c(c2)NC(=O)CO3)cc1OC`, the “hERG current change (%, negative = inhibition) at 10uM” value was determined as 12.2%.

For the compound `CCCCn1c(N)c(N(CCOC)C(=O)c2ccc(C)c(S(=O)(=O)N3CCOCC3)c2)c(=O)[nH]c1=O`, the “hERG current change (%, negative = inhibition) at 10uM” value amounted to 1.29%.

With `Cc1ccc(-c2cn(-c3ccc(OC(F)F)cc3)c3[n+]2CCCCC3)cc1.[Br-]`, the “hERG current change (%, negative = inhibition) at 10uM” value was -61.6%.

For the compound `NC(=O)CSc1nc2scc(-c3ccc(Cl)cc3)c2c(=O)n1Cc1ccccc1`, the “hERG current change (%, negative = inhibition) at 10uM” value is recorded as 33.1%.

For `O=C(Nc1cccc(Br)c1)c1ccccc1-c1ccccc1`, the “hERG current change (%, negative = inhibition) at 10uM” value was -22%.

Consider `O=S(=O)(c1cc(Cl)ccc1Cl)N1CCN(Cc2ccco2)CC1`, for which the “hERG current change (%, negative = inhibition) at 10uM” value is given as -54.1%.

Turning to `Cc1cc(C)c(NC(=O)COC(=O)Cc2cccs2)c(C)c1`, the “hERG current change (%, negative = inhibition) at 10uM” value stood at 14.8%.

As to `O=C(Nc1nnc(CSCc2ccc(F)cc2)s1)c1cccc([N+](=O)[O-])c1`, the “hERG current change (%, negative = inhibition) at 10uM” value was 17.6%.

Consider `CC(=O)c1ccc(NC(=O)C2Cc3ccccc3CN2C(=O)c2ccccc2)cc1` (centres unmarked), for which the “hERG current change (%, negative = inhibition) at 10uM” value is recorded as -17.6%.
